{"source": "PubChem BioAssay AID662", "about": "(National Center for Advancing Translational Sciences (NCATS), 2007)", "note": "Among all 71,000 compounds or so, about 1,800 (2.5%) were called active. The inconclusive results got no clear call from the source; some entries with a clear call stand among them for comparison. Calls come from the whole dose curve; as a rule, active = well fitted activation curve with a large enough effect in the signal ratio, with a control signal flat (not every such curve was filed as active); inconclusive = small, poorly fitted or top-dose-only effect, or effect the other way, or a change in a side signal; inactive = flat fitted curve, though single readings scatter; the % refers to the signal ratio. Potencies beside an inconclusive call are fits to weak or partial responses and may not hold up. Numbered stars: 1 amine (or outer) side, 2 acyl side, 3 side chain; on linkers, the order of the positions; unused ones are H or OH. Bridge positions count the residues as written; N and C are the ends. Square brackets hold non-standard residues; d marks the D form. Peptide text beside a SMILES is read from it. I, II: the chains in the order shown. Actinocin(9to1) = Cc1c2oc3c(C)ccc(C(=O)[*:1])c3nc-2c(C(=O)[*:2])c(N)c1=O; NMeV = CN[C@H](C(=O)O)C(C)C; Sar = CNCC(=O)O", "data": [{"assay": "Cell signaling CRE-BLA (Fsk stim); note: potency is the fitted concentration of half-maximal effect; tags give direction and shape of the fitted curve; for activity change, negative = inhibition: % of control where 0% means no effect", "details": "CHO CRE-bla reporter (cAMP response element driving beta-lactamase), forskolin EC10, beta-lactamase ratio; activity change, negative = inhibition: at 38.2 µM (top of the series) unless noted", "outline": "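CRE-bla CHO cells stimulated with EC10 NKH 477 (water-soluble forskolin) and compound titrations, 3 h at 37C; beta-lactamase read with CCF4 after 2 h at room temperature. Activity from 460/530 nm emission ratio, AC50 values for positive or negative modulation.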", "values": [{"smiles": "O=C(Nc1cccnc1)C1(c2ccccc2)CCCC1", "activity change, negative = inhibition": "inconclusive: -27.2%"}, {"smiles": "O=C(O)Cn1nnn(-c2ccccc2)c1=S", "Potency": "inconclusive: 20 µM [rising, single point]"}, {"smiles": "CCSc1nc(N2CCOCC2)c2c(c1C#N)CCCC2", "activity change, negative = inhibition": "inconclusive: -1.03%"}, {"smiles": "CC1=C(C(=O)NCc2ccccc2)C(c2cccnc2)n2ncnc2N1", "note": "(stereo unspecified)", "activity change, negative = inhibition": "inconclusive: 3.12%"}, {"smiles": "On1onc2c3cc(-c4ccccc4)nc3ccc21", "activity change, negative = inhibition": "inconclusive: 5.84%"}, {"smiles": "CCn1c(SCC(=O)Nc2ccc3c(c2)c2ccccc2n3CC)nnc1-c1ccco1", "activity change, negative = inhibition": "inactive: -4.71%"}, {"smiles": "CC(=O)Nc1ccc2nc(-c3cccnc3)[nH]c2c1", "activity change, negative = inhibition": "inactive: 0.855%"}, {"smiles": "Cc1cc(C(=O)NCc2ccc3c(c2)OCO3)n(-c2ccccc2)n1", "activity change, negative = inhibition": "inactive: 1.92%"}, {"smiles": "CCOc1ccc(-c2nc3n(c(=O)c2C#N)CCCS3)cc1", "activity change, negative = inhibition": "inactive: 9.97%"}, {"smiles": "O[C@H](CCCN1CCN(c2ncc(F)cn2)CC1)c1ccc(F)cc1", "activity change, negative = inhibition": "inconclusive: -8.6%"}, {"smiles": "CCSc1nc2cc(C(=O)OC)ccc2c(=O)n1CC", "activity change, negative = inhibition": "inconclusive: 67.8%"}, {"smiles": "CCN(CC(=O)Nc1ccc2c(c1)OCCO2)C(=O)C1CCCCC1", "Potency": "inconclusive: 10 µM [rising, partial curve]"}, {"smiles": "Cn1c2c(c(=O)n(C)c1=O)C1c3ccccc3OCC1C(C)(C)O2", "note": "(stereo unspecified)", "Potency": "inconclusive: 12.6 µM [rising, single point]"}, {"smiles": "CN1CCN(c2ncc3nc(-c4ccccc4)c(=O)n(Cc4ccc(F)cc4)c3n2)CC1", "Potency": "inconclusive: 2 µM [rising, full curve]"}, {"smiles": "O=C(CCS(=O)(=O)c1cc(Br)cc2c1N(C(=O)C1CC1)CC2)NCc1ccco1", "activity change, negative = inhibition": "inconclusive: 26.9%"}, {"smiles": "COc1cc(OC)c(NC(=O)Nc2ccc(OC)c(OC)c2)cc1Cl", "Potency": "inconclusive: 10 µM [rising, single point]"}, {"smiles": "C=CCNC(=O)c1scc2c1CCCC2", "activity change, negative = inhibition": "inconclusive: 34.8%"}, {"smiles": "CCOC(=O)c1oc2ccccc2c1NC(=O)c1cccs1", "Potency": "active: 3.98 µM"}, {"smiles": "CCOC(=O)C1(Cc2ccc(O)cc2)NC(c2ccco2)C2C(=O)N(c3ccccc3F)C(=O)C21", "note": "(stereo unspecified)", "activity change, negative = inhibition": "inactive: -5.9%"}, {"smiles": "CSCCC(N=Cc1c(O)n(-c2ccc(F)cc2)c(=O)[nH]c1=O)C(=O)O", "note": "(stereo unspecified)", "activity change, negative = inhibition": "inactive: 0.336%"}, {"smiles": "COc1ccc(C(=O)/C=C/N2CCCCC2)cc1OC", "Potency": "inconclusive: 1.26 µM [rising, partial curve]"}, {"smiles": "O=C1C2CCCN2C(c2ccc(Br)cc2)N1c1ccc(F)cc1", "note": "(stereo unspecified)", "activity change, negative = inhibition": "inactive: -7.85%"}, {"smiles": "CC(=O)c1ccc(NS(=O)(=O)c2ccccc2)cc1", "activity change, negative = inhibition": "inconclusive: -0.388% [at 7.6 µM]"}, {"smiles": "C[C@H](Br)C(=O)Nc1ccc(C(=O)O)c(O)c1", "activity change, negative = inhibition": "inactive: -5.43% [at 7.6 µM]"}, {"smiles": "Cc1ccc(-c2nc3ncccn3c2Nc2ccc3c(c2)OCO3)o1", "activity change, negative = inhibition": "inconclusive: -27%"}, {"smiles": "O=C(Cn1nc(C(F)(F)F)c2c1CCCC2)NCc1ccco1", "activity change, negative = inhibition": "inactive: -9.06%"}, {"smiles": "Cc1cnc(CNc2cc(-c3ccccc3Cl)ncn2)cn1", "activity change, negative = inhibition": "inactive: 7.16%"}, {"smiles": "COc1ccc(CCn2c(N)c(C(=O)NCc3ccco3)c3nc4ccccc4nc32)cc1OC", "Potency": "inconclusive: 12.6 µM [rising, partial curve]"}, {"smiles": "Cc1onc(-c2c(F)cccc2Cl)c1C(=O)NCCc1ccc(S(N)(=O)=O)cc1", "activity change, negative = inhibition": "inconclusive: -3.93%"}, {"smiles": "COc1ccc(Oc2ncc3nc(-c4cccs4)c(=O)n(C)c3n2)cc1", "Potency": "active: 2.51 µM"}, {"smiles": "Cc1cc(C)c2[nH]c(=O)c(=O)[nH]c2c1", "activity change, negative = inhibition": "inactive: 5.62%"}, {"smiles": "COc1ccc(CCN2C(=O)C3C4C=CC(C4)C3C2=O)cc1OC", "note": "(stereo unspecified)", "Potency": "inconclusive: 0.501 µM [rising, full curve]"}, {"smiles": "Cc1c2oc3c(C)ccc(C(=O)N[C@@H]4C(=O)N[C@H](C(C)C)C(=O)N5CCC[C@H]5C(=O)N(C)CC(=O)N(C)[C@@H](C(C)C)C(=O)O[C@@H]4C)c3nc-2c(C(=O)N[C@@H]2C(=O)N[C@H](C(C)C)C(=O)N3CCC[C@H]3C(=O)N(C)CC(=O)N(C)[C@@H](C(C)C)C(=O)O[C@@H]2C)c(N)c1=O", "note": "(I: T[dV]P[Sar][NMeV] / II: T[dV]P[Sar][NMeV]; ester I:1-I:C, II:1-II:C; linker I:N-II:N via Actinocin(9to1))", "Potency": "inconclusive: 0.0316 µM [falling, full curve]"}, {"smiles": "CCSC(N)=Nc1ccc(C(F)(F)F)cc1", "activity change, negative = inhibition": "inactive: 2.84%"}, {"smiles": "COc1cc(C(=O)Nc2cc(C)ccn2)cc(OC)c1OC", "Potency": "inconclusive: 12.6 µM [rising, single point]"}, {"smiles": "COC(=O)N1CCC2(CCN(C(=O)Nc3ccc(OC)cc3)CC2)CC1", "activity change, negative = inhibition": "inactive: 4.59%"}, {"smiles": "CCOCCCNS(=O)(=O)c1ccc(NC(=O)c2ccccc2)cc1", "Potency": "inconclusive: 25.1 µM [rising, partial curve]"}, {"smiles": "Cn1c(SCc2nc3ccccc3[nH]2)nnc1-c1cnccn1", "activity change, negative = inhibition": "inactive: 4.9%"}, {"smiles": "COC(=O)C1C(=O)c2c(n[nH]c2C)CC1(C)C", "note": "(stereo unspecified)", "activity change, negative = inhibition": "inactive: 1.37%"}, {"smiles": "O=C(Nc1nc(-c2ccccc2)cs1)c1cccs1", "activity change, negative = inhibition": "inactive: -9.78%"}, {"smiles": "CCc1ccc(OCCCC(=O)O)c(Br)c1", "activity change, negative = inhibition": "inconclusive: -7.14%"}, {"smiles": "CCc1ccc(OCC(=O)OC2CCS(=O)(=O)C2)cc1", "note": "(stereo unspecified)", "activity change, negative = inhibition": "inactive: -2.34%"}, {"smiles": "Cc1nn(-c2ccc(F)cc2)c2sc(C(=O)O)cc12", "Potency": "active: 6.31 µM"}, {"smiles": "Cc1cc2c(c(=O)n1Cc1ccco1)C(c1cccnc1)C(C#N)=C(N)O2", "note": "(stereo unspecified)", "activity change, negative = inhibition": "inactive: -2.59%"}, {"smiles": "COc1ccc(-c2noc(C)c2-c2ccc3ccccc3n2)c(O)c1", "activity change, negative = inhibition": "inactive: -9.63%"}, {"smiles": "Cc1nn(Cc2ccc(Cl)cc2)c(C)c1NC(=O)c1cc(-c2ccc3c(c2)OCO3)on1", "Potency": "inconclusive: 25.1 µM [rising, single point]"}, {"smiles": "COCCCn1c(=S)[nH]c2ccc(N3CCOCC3)cc2c1=O", "activity change, negative = inhibition": "inconclusive: 21.2%"}, {"smiles": "COC(=O)[C@@]1(Cc2ccc(OC)cc2)[C@H]2c3cc(C(=O)N4CCCC4)n(Cc4ccc(OC(F)(F)F)cc4)c3C[C@H]2CN1C(=O)c1ccccc1", "activity change, negative = inhibition": "inactive: -3.5%"}, {"smiles": "N#CCCn1c(=O)c(-c2cccc(C#N)c2)nc2cnc(N3CCOCC3)nc21", "Potency": "inconclusive: 2.51 µM [rising, partial curve]"}, {"smiles": "CCOC(=O)c1cc2sccc2n1CC(=O)N1CCc2ccccc21", "activity change, negative = inhibition": "inactive: -6.37%"}, {"smiles": "Nc1ncnc2c1nc(Sc1ccc(Cl)cc1)n2[C@@H]1O[C@H]2COP(=O)(O)O[C@@H]2[C@H]1O", "Potency": "inconclusive: 25.1 µM [rising, partial curve]"}]}]}
